These results are taken from the supplement of paper PMC10369915.

B1: CDH2_HUMAN_852 (peptide)
chain: NDPTAPPYDSLLVFD
B2: CSF1R_HUMAN_699 (peptide)
chain: DPEGGVDYKNIHLEK
B3: CDH2_HUMAN_860 (peptide)
chain: DSLLVFDYEGSGSTA
B4: CHN2_HUMAN_153_YA (peptide)
chain: KMTTNPIYEHIGAAT
B5: CSK_HUMAN_304 (peptide)
chain: DVCEAMEYLEGNNFV
B6: CHERP_HUMAN_714 (peptide)
chain: GWEQNGLYEFFRAKM
B7: CD28_HUMAN_209 (peptide)
chain: TRKHYQPYAPPRDFA
B8: COF1_HUMAN_68 (peptide)
chain: GQTVDDPYATFVKML
B9: CSF1R_HUMAN_809 (peptide)
chain: DIMNDSNYIVKGNAR
B10: CRKL_HUMAN_207 (peptide)
chain: IPEPAHAYAQPQTTT
B11: CDK1_HUMAN_4 (peptide)
chain: GGGGMEDYTKIEKIG
B12: CDC73_HUMAN_293_YA (peptide)
chain: IPAAANRYDQERFKG
B13: CLIC5_HUMAN_33 (peptide)
chain: EENESPHYDDVHEYL
B14: CD11B_HUMAN_594_YA (peptide)
chain: AGSPLKAYTPVVVTL
B15: CKAP2_HUMAN_599 (peptide)
chain: YNVSTTPYLQSVKKK
B16: CD72_HUMAN_39 (peptide)
chain: DDDGEITYENVQVPA
B17: CDH2_HUMAN_884_YA (peptide)
chain: SSGGEQDYDALNDWG
B18: CTNB1_HUMAN_86 (peptide)
chain: VADIDGQYAMTRAQR

Some of the results follow. Rule as the data show it: active = 3.2 or more and inactive = the rest. Only a few entries rise above the background.
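Also: displayed peptides selected on beads carrying the immobilized SH2 domain, with library peptides lacking any tyrosine serving as negative controls.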

The first assay has as its target SHP2 C-SH2 domain E139D. In words: enrichment score (SH2-bound / input frequency) (ratio); bacterial display of known human phosphotyrosine sites (pTyr-Var adds point mutants) read by sequencing; higher = stronger binding; tyrosines were phosphorylated by kinases first. The following applies: peptide library: Human pTyr.
With B1, the enrichment score is inactive: 0.651.
On to B2, for which the enrichment score was inactive: 1.14.
On the same count and under the same terms, as for B3, the figure is inactive: 0.543; as for B4, inactive: 0.931; as for B5, inactive: 1.53.
For B6, the enrichment score is inactive: 1.72.
Still for that read-out and setting: as for B7, the figure is inactive: 2.62; as for B8, inactive: 0.997; as for B9, inactive: 0.584.
Same read-out and setting: with B10 the figure was inactive: 0.626.
The same measure, in the same setting: with B11 the figure was inactive: 0.627; with B12, inactive: 1.05; with B13, inactive: 0.98.
As for B14, the enrichment score is inactive: 1.06.
B15: the enrichment score is inactive: 0.962.
Still for that read-out and setting: as for B16, the figure is inactive: 1.24; as for B17, inactive: 0.716; as for B18, inactive: 0.667.

A further assay addresses SHP2 C-SH2 domain wild-type. The description is as above. The conditions noted are these: peptide library: Human pTyr.
Regarding B1, the enrichment score is inactive: 0.549.
On the same count and under the same terms, as for B2, the figure is inactive: 0.89; as for B3, inactive: 0.435; as for B4, inactive: 0.866.
On the same count and under the same terms, with B5 the figure was inactive: 1.29; with B6, inactive: 1.57.
On to B7, for which the enrichment score is inactive: 3.04.
The same measure, in the same setting: with B8 the figure was inactive: 1.12; with B9, inactive: 0.548.
Still for that read-out and setting: with B10 the figure was inactive: 0.687; with B11, inactive: 0.632.
Same read-out and setting: with B12 the figure was inactive: 0.924.
With B13, the enrichment score is inactive: 1.06.
For B14, the enrichment score is inactive: 1.05.
Same read-out and setting: with B15 the figure was inactive: 0.962; with B16, inactive: 1.07; with B17, inactive: 0.5.
As for B18, the enrichment score is inactive: 0.581.

Another assay addresses SHP2 N-SH2 domain L43F. The assay is described as above. The conditions noted are these: peptide library: Human pTyr.
As to B1, the enrichment score was inactive: 0.728.
The same measure, in the same setting: with B2 the figure was inactive: 1.06.
The same measure, in the same setting: with B3 the figure was inactive: 0.44.
Same read-out and setting: with B4 the figure was inactive: 1.13; with B5, inactive: 1.54; with B6, inactive: 1.5.
As for B7, the enrichment score was inactive: 2.57.
B8: the enrichment score is inactive: 0.877.
Still for that read-out and setting: as for B9, the figure is inactive: 0.654; as for B10, inactive: 0.702; as for B11, inactive: 0.944.
Same read-out and setting: as for B12, the figure is inactive: 0.811.
On to B13, for which the enrichment score was inactive: 1.07.
In the case of B14, the enrichment score was inactive: 0.929.
Still for that read-out and setting: as for B15, the figure is inactive: 0.824; as for B16, inactive: 1.09; as for B17, inactive: 0.6.
Still for that read-out and setting: with B18 the figure was inactive: 0.647.

The target of a further assay is SHP2 N-SH2 domain T42A. The assay is described as above. The conditions noted are these: peptide library: Human pTyr.
As for B1, the enrichment score was inactive: 0.604.
For the molecule B2, the enrichment score was inactive: 0.983.
Still for that read-out and setting: with B3 the figure was inactive: 0.549; with B4, inactive: 0.984.
On the same count and under the same terms, with B5 the figure was inactive: 1.41; with B6, inactive: 1.49.
Consider B7, for which the enrichment score was inactive: 2.48.
Regarding B8, the enrichment score is inactive: 1.03.
Still for that read-out and setting: as for B9, the figure is inactive: 0.71; as for B10, inactive: 0.647.
Still for that read-out and setting: with B11 the figure was inactive: 0.55; with B12, inactive: 0.969.
On the same count and under the same terms, as for B13, the figure is inactive: 1.15; as for B14, inactive: 1.64; as for B15, inactive: 0.972.
B16: the enrichment score is inactive: 1.16.
For B17, the enrichment score is inactive: 0.701.
As to B18, the enrichment score is inactive: 0.666.

For the next assay, the target named is SHP2 N-SH2 domain T52S. Described as above. The following applies: peptide library: Human pTyr.
As for B1, the enrichment score is inactive: 0.781.
Consider B2, for which the enrichment score was inactive: 0.647.
Same read-out and setting: as for B3, the figure is inactive: 0.448; as for B4, inactive: 0.899; as for B5, inactive: 1.34.
The same measure, in the same setting: as for B6, the figure is inactive: 1.84.
On to B7, for which the enrichment score is active: 3.46.
The same measure, in the same setting: with B8 the figure was inactive: 0.818; with B9, inactive: 0.658.
For B10, the enrichment score was inactive: 0.68.
For B11, the enrichment score was inactive: 0.798.
Consider B12, for which the enrichment score is inactive: 0.848.
Consider B13, for which the enrichment score is inactive: 0.93.
The same measure, in the same setting: with B14 the figure was inactive: 0.955.
For B15, the enrichment score was inactive: 0.876.
Still for that read-out and setting: with B16 the figure was inactive: 1.12; with B17, inactive: 0.681; with B18, inactive: 0.543.

A further assay concerns the target SHP2 N-SH2 domain wild-type. The description is as above. The conditions noted are these: peptide library: Human pTyr.
Turning to B1, the enrichment score was inactive: 0.658.
B2: the enrichment score is inactive: 0.8.
As to B3, the enrichment score was inactive: 0.476.
The same measure, in the same setting: as for B4, the figure is inactive: 1.35.
As for B5, the enrichment score is inactive: 1.46.
On the same count and under the same terms, as for B6, the figure is inactive: 2.2.
The same measure, in the same setting: with B7 the figure was active: 3.98.
Take B8: the enrichment score is inactive: 0.926.
B9: the enrichment score was inactive: 0.881.
Turning to B10, the enrichment score was inactive: 0.663.
The same measure, in the same setting: as for B11, the figure is inactive: 0.913; as for B12, inactive: 0.822; as for B13, inactive: 0.994.
With B14, the enrichment score is inactive: 0.956.
As to B15, the enrichment score was inactive: 1.04.
As for B16, the enrichment score was inactive: 1.12.
With B17, the enrichment score was inactive: 0.857.
On the same count and under the same terms, as for B18, the figure is inactive: 0.57.
